Assay results as given in the RNAGym collection of RNA variant scans (doi:10.1093/nar/gkz1192).
Read counts are not given, so values of variants with three or more changes are uncertain.

B1: CPEB3 Ribozyme (parent)
chain: UAACAGGGGGCCACAGCAGAAGCGUUCACGUCGCAGCCCCUGUCAGAUUCUGGUGAAUCUGCGAAUUCUGCUGUAUAUCUC

Variants of: B1
Assay: self-cleavage, relative activity (ratio to wild type); higher = more cleavage; in vitro, sequencing
Outline: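 Relative activity compares each variant's cleaved/total read fraction with that of the unmutated ribozyme. To get these fractions, barcoded CPEB3 ribozyme libraries from rounds of error-prone PCR were transcribed with T7 RNA polymerase for 5 hours at 37°C and then given 15 min of DNase I treatment before EDTA was added. The RNAs were reverse transcribed with template switching and sequenced on Illumina, and DNA sequencing linked barcodes to variants. A minimum of 5 reads applied, and three batches were averaged.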
Work on UAACAGGUGGCCACAGCAGAAGCGUUCGCGUCGCAGCCCCCGUCAGAUUCUGGUGAAUCAGCGUAUUCUGCCGUAUAUCUC yielded a self-cleavage of 0.1. With UAACAGGUGGCCACAGCAGAAGCGUUCGCGUCGCAGCCCCUGUCAGAUUCUGGUGAAUCUGCGAAUUCUGCUGUAUAUCCC the self-cleavage was 0.09. Variant UAACAGGUGGCCACAGCAGAAGCGUUCUCAUCGCAGCCCCUGUCAGAUCCUGGUGAAUCUGCGAAUUUUGCUGUAUAUCCC has a self-cleavage of 0.03. For UAACAGGUGGCCACAGCAGAAGCGUUCUCGUCACAGCCCCUGUCAGAUUCUGGUGAAUCUGCGAAUUCUGCUGUAUAUCUC, the self-cleavage was 0.07. UAACAGGUGGCCACAGCAGAAGCGUUCACGUCGCCGCCCCAGUCAGAUUCUGGUGAAUCUGCGAAUUCUGCUGUAUAUCUC gave a self-cleavage of 0.04. In the case of UAACAGGUGGCCACAGCAGAAGCGUUCACGUCGCGGGCCCCGUCAGAUUCUGGUGAAUAUGCGAAUUCUGCUGUAUAUCUC, the self-cleavage is reported as 0.16. With UAACAGGUGGCCACAGCAGAAGCGUUCACGUCGCGGCCCCUGUCAGAUUCUGGUGAAACUGGGAACUCUGCUGUAUAUCUC the self-cleavage was 0.05. Work on UAACAGGUGGCCACAGCAGAAGCGUUCACGUCGCUGCCCCUGUCAGAUUCUGGUGAGUCUGCGAAUUCUGCUGUAUAUCUC yielded a self-cleavage of 0.09. UAACAGGUGGCCACAGCAGAAGCGUUCACGUCGCUGCCCCUGUCAAAUUCUGGUGAAUCUGCGAACUCUGCUGUAUAUCUC showed a self-cleavage of 0.1. Variant UAACAGGUGGCCACAGCAGAAGCGUUCACGUCGCAGCCCCUGUCGGAUUCUGGUGAAUCUGCGAAUUCUGUUGUAUAUCUC has a self-cleavage of 0.06. Work on UAACAGGUGGCCACAGCAGAAGCGUUCACGUCGCAGCCCCUGUCGGAUUCAGGUGAAUCUGCGGAUUCUGCUGUAUAUCUC yielded a self-cleavage of 0.2. Work on UAACAGGUGGCCACAGCAGAAGCGUUCACGUCGCAGCCCCUGUCGGAUUCUGGUGAAUCUGCGAAUCCUGCUGUAUAUCUC yielded a self-cleavage of 0.06. UAACAGGUGGCCACAGCAGAAGCGUUCACGUCGCAGCCCCUGUCUGAUUCUGUUGAAUCUGCGAAUUCUGCUGAAUAUCUC showed a self-cleavage of 0.23. In the case of UAACAGGUGGCCACAGCAGAAGCGUUCACGUCGCAGCCCCUGUCUGAUUCUGGAGAAUCUGCGAAUUCUGCAGUAUACCUC, the self-cleavage is reported as 0.04. With UAACAGGUGGCCACAGCAGAAGCGUUCACGUCGCAGCCCCUGUCAGGUUCUGAUGAAUCUGCGAAUUCUGCUGUAUAUCCC the self-cleavage was 0.24. For UAACAGGUGGCCACAGCAGAAGCGUUCACGUCGCAGCCCCUGUCAGUUUCUGGCGAAUCUGCGAAUUCUGUUGUAUAUCUC, the self-cleavage was 0.06. In the case of UAACAGGUGGCCACAGCAGAAGCGUUCACGUCGCAGCCCCUGUCAGAUUCUGGUGAGUCUGCGAAUUCUACUGUAUAUCUC, the self-cleavage is reported as 0.05. UAACAGGUGGACACAGCUGUAGCGUUCACGUCGCGGCCCCUGUCAGAUUCUGGUGAAUCUGCGAGUUCUGCUGUAUAUCUC gave a self-cleavage of 0.04. Work on UAACAGGUGGACACAGCAGAAGCGUCCACGUCGCAGCCCCUGUCAGAUUCUGGUGAAUCUGCGAAUUCCGCUGUAUAUCUC yielded a self-cleavage of 0.06. With UAACAGGUGGCUACAGCAGAAGCGUUCACGUCGCAGCCCCUGUCAGAUCCUGGUGAAUCUGCGAAUCCUGCUGUAUAUGUC the self-cleavage was 0.09. For UAACAGGUGGCCAAUGCAGAAGCGCUCACGUCGCAGCCCCUGUCGGAUUCUGGUGAAUCUGCGAAUUCUGCUGUAUAUCUC, the self-cleavage was 0.05. In the case of UAACAGGUGGCCAAAGCAGAAGCGUUCACGUCGCUGCCCCUGUCAGAUUCUGGUGAAUCUGCGAAUUCUGCUGUAUAGCAC, the self-cleavage is reported as 0.03. With UAACAGGUGGCCAUAGCAGAUGCGUCCACGUCGCAGCCCCUGUCAGAUUCUGGUGAAUCUGCGAAUUCUGCUGUAUAUCUC the self-cleavage was 0.03. For UAACAGGUGGCCACAGUAGAAGCGUUCGCGUUGCAGCCCCUGACAGAUUCUGGUGAAUCUGCGAAUUCUGCUGUAUAUCUC, the self-cleavage was 0.05. UAACAGGUGGCCACAGUAGAAGCGUUCACGUCGCAGCCCCUGUCUGAUUCUGGUGAAUCUGCGUAUUCUGCUGUAUAUCUC gave a self-cleavage of 0.05. For UAACAGGUGGCCACAGUAGAAGCGUUCACGUCGCAGCCCCUGUCAGGUUCUGGUGAAUCGGCUAAUUCUGCUGUAUAUCAC, the self-cleavage was 0.02. For UAACAGGUGGCCACAGCAGAAGCGUUCAUGUCGCAGCCCCUGUCCAGUUCUGGUGAAUCUGCGAAUUCUGCCGUAUAUCUC, the self-cleavage was 0.06. Variant UAACAGGUGGCCACAGCAGAAGCGUUCACGUUGCAGCCCCUGUCAGAUUCUGGUGAAUCUGGGAAUUCUGCUGUAUAUCCC has a self-cleavage of 0.09. In the case of UAACAGGUGGCCACAGCAGAAGCGUUCACGUUGCAGCCCCUGUCAGAUUCUGGUGAAUCUGCGAAUUCUGCUGUAUAACUC, the self-cleavage is reported as 0.11. UAACAGGUGGCCACAGCAGAAGCGUUCACGUCGAAGCCCCUGUCAGAUUCUGGUGAAUCUGCAAAUUCUGCUGUUUAUCUC showed a self-cleavage of 0.06. For UAACAGGUGGCCACAGCAGAAGCGUUCACGUCGCAGUCCCUGUCAGAUUCUGGUGUAUCCGCGAAUUCUGCUGUAUAUCUC, the self-cleavage was 0.04. Work on UAACAGGUGGCCACAGCAGAAGCGUUCACGUCGCAGCCUCUGUCAGAAUCUGGUGAAUCUGGGAAUACUGCUGUAUAUCUC yielded a self-cleavage of 0.09. Work on UAACAGGUGGCCACAGCAGAAGCGUUCACGUCGCAGCCCUUGUCAGAUACUGGUGAAUCUGCGAAUUCCGCUGUAUAUCCC yielded a self-cleavage of 0.13. For UAACAGGUGGCCACAGCAGAAGCGUUCACGUCGCAGCCCCUGUUUGAUUCUGGUGAAUCUGCGAUUUCUGCUGUAUAUCCC, the self-cleavage was 0.07.
